# Measured values taken from the supplement of paper PMC7826260.
# The list shows a part of the results. Each Rep nickase domain was tested in vitro on the same pool of single strands at 3 µM enzyme and 37 °C for 1 h; the strands have 90 letters, of which the middle is given. Numbers give uncut DNA relative to the enzyme-free pool, as log2; uncut sequences lie near 0, cut ones below; no hit call is given. Because reads are shares of a total, they shift together; where an enzyme cuts many sequences, the uncut ones exceed 0.
# Experiments:
# Test in all cases: uncleaved DNA left, log2 of reads against the no-enzyme library (log2 ratio); higher = less cleavage (more negative = more Rep cleavage of the k-mer); sequences stand for … in CTCGTCCG…ACCGGAGA
# [1] = system: T1, Rep nickase domain of Muscovy duck circovirus
# T1 sequence (Rep 1-111, printed without the tag): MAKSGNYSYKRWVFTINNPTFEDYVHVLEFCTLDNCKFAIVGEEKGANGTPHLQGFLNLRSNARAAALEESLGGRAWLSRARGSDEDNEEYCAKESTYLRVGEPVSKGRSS
# Protocol: (§1)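 A pool of 90-nt single-stranded DNAs with seven random bases just before the constant AC of the nick site (name = the seven bases) was cut by 3 µM recombinant His6-SUMO-tagged Rep nickase domain (300 nM DNA, 50 mM HEPES pH 8.0, 50 mM NaCl, 1 mM MnCl2, 1 h, 37 °C, three replicates). Uncut DNA was amplified and sequenced.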
# [2] = system: T2, Rep nickase domain of banana bunchy top virus
# T2 sequence (Rep 1-94, printed without the tag): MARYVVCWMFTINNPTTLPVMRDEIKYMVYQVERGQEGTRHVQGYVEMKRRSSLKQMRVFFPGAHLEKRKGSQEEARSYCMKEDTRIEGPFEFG
# Protocol: as §1
# [3] = system: T3, Rep nickase domain of cabbage leaf curl virus
# T3 sequence (Rep 1-116, printed without the tag): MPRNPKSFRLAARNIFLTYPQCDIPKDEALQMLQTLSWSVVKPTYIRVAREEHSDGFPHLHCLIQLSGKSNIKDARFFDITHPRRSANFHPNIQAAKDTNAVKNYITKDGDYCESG
# Protocol: as §1
# [4] = system: T4, Rep nickase domain of chickpea chlorotic dwarf virus
# T4 sequence (Rep 1-124, printed without the tag): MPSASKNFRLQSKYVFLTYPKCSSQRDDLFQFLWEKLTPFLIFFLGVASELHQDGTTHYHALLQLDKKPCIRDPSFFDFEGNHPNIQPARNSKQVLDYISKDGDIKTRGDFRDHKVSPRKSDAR
# Protocol: as §1
# [5] = system: T5, Rep nickase domain of faba bean necrotic yellows virus
# T5 sequence (Rep 1-98, printed without the tag): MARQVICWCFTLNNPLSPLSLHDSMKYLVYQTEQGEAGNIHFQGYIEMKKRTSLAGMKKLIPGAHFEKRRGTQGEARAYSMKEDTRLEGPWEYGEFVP
# Protocol: as §1
# [6] = system: T6, Rep nickase domain of maize striate mosaic virus
# T6 sequence (Rep 1-117, printed without the tag): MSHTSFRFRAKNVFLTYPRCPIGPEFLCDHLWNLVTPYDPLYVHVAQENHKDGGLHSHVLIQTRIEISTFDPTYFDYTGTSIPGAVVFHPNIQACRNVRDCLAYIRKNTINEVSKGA
# Protocol: as §1
# [7] = system: T7, Rep nickase domain of porcine circovirus 2
# T7 sequence (Rep 2-116, printed without the tag): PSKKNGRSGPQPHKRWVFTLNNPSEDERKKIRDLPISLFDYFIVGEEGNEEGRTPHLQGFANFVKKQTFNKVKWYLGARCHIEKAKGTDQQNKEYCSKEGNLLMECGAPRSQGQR
# Protocol: as §1
# [8] = system: T8, Rep nickase domain of tomato yellow leaf curl virus
# T8 sequence (Rep 1-136, printed without the tag): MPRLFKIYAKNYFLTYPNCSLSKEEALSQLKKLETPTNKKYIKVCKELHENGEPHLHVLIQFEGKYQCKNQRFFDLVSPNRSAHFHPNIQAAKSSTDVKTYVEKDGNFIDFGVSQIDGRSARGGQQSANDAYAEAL
# Protocol: as §1
# [9] = system: T9, Rep nickase domain of wheat dwarf virus
# T9 sequence (Rep 1-137, printed without the tag): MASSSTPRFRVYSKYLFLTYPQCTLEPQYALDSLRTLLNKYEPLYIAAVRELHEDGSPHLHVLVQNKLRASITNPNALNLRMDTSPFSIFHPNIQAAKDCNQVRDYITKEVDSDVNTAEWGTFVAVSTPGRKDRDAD
# Protocol: as §1
Sequence,uncleaved DNA left (log2) [1],uncleaved DNA left (log2) [2],uncleaved DNA left (log2) [3],uncleaved DNA left (log2) [4],uncleaved DNA left (log2) [5],uncleaved DNA left (log2) [6],uncleaved DNA left (log2) [7],uncleaved DNA left (log2) [8],uncleaved DNA left (log2) [9]
TTCGCTG,0.0138,-0.0308,0.143,0.65,-0.116,1.06,0.0155,-0.193,-0.126
AAGAGCT,0.0627,-0.0521,-0.0278,0.00244,-0.109,0.303,-2.71,-0.0884,-0.0529
GCGAATC,-0.00574,0.15,0.109,0.531,0.0351,0.658,0.0771,0.0912,0.11
TGGTATA,-0.0174,0.059,0.274,-0.117,0.0265,0.939,-0.126,0.0255,0.0983
CTGTTGT,-0.286,-0.358,-0.557,-0.913,-0.144,-1.26,-1.52,-0.22,-0.321
AGATCGT,-0.0379,0.02,-0.0628,-0.356,0.0327,-0.81,-0.262,-0.142,-0.065
CGGAATA,0.0155,-0.0349,-0.0167,-0.245,0.02,0.313,-0.0952,0.0191,0.148
GGCTATA,-0.0458,0.0395,0.441,0.976,0.0899,1.75,0.0555,0.044,0.197
AAGCATA,0.0188,0.00629,-0.172,-1.4,0.0468,-0.0393,-0.689,-0.139,0.107
GTATACA,-0.0532,0.153,0.294,0.607,0.0079,1.66,0.0987,0.123,0.0962
TTTATTA,-0.0266,0.0233,0.226,-0.713,-0.0171,0.193,-0.163,0.0228,0.122
AAGGGGC,-0.00526,-0.114,0.123,0.647,-0.0619,0.208,0.0978,-0.0163,0.0294
AGCGTCG,-0.125,0.0614,-0.101,0.149,-0.0498,0.329,0.0949,0.0174,-0.0565
TACTTCT,-3.66,-3.32,-3.08,-3.26,-0.199,-1.21,-4.08,0.0295,-0.505
GTTGGGT,-0.0831,-0.161,0.0594,0.595,-0.0619,0.585,-0.0389,0.0416,-0.142
TTACACG,-0.11,-0.189,-1.1,-1.39,-0.0682,-1.38,0.0292,-0.0671,-0.215
AGGAGGA,0.0938,0.19,0.406,0.961,0.0672,0.682,0.231,0.0966,0.176
CTCTGCT,-0.695,-0.168,-0.727,-1.44,-0.0832,-1.07,-2.32,-0.113,-0.203
TAACGCC,0.0469,-0.0597,-0.847,-2.21,0.0592,-0.751,-0.0966,-0.0475,-0.158
GTAAACT,0.0437,0.0922,0.317,0.583,0.01,1.72,0.104,0.0749,0.0635
CATCGAA,-0.0262,-0.124,-0.529,-0.739,-0.0913,-1.25,-0.0568,-0.188,-0.182
CCATTCG,-0.0938,-0.109,-0.165,1.29,-0.0393,0.9,0.1,0.168,-0.184
GACCAAC,0.0051,0.0318,0.105,-0.0249,-0.018,0.276,-0.0104,-0.047,0.0834
CGTTGCC,-0.0217,-0.0396,-0.934,-0.577,0.00535,-0.912,-0.46,0.116,-0.303
TACTGTT,-3.38,-3.41,-3.48,-2.85,-0.683,-0.0561,-3.98,-0.141,-1.05
GGAGGAA,0.0863,0.0825,0.671,1.56,0.0398,2,0.196,0.00587,0.147
CGGGGCG,-0.106,-0.0391,-0.624,0.352,-0.165,-0.17,0.116,-0.0634,-0.0607
TTTCGCA,-0.139,-0.145,-0.435,-1.18,-0.0965,-1.03,-0.272,-0.123,-0.0689
GTGTAAG,0.215,0.163,-0.13,-0.154,0.0828,-0.415,0.272,0.145,0.0904
